About 2,200 (0.71%) of roughly 310,000 compounds showed an effect of 50% or more. The effect is printed as a negative number. The list shows a part of the results.
Target: human ether-à-go-go-related gene (hERG) potassium channel (human, UniProt Q12809)
Assay: primary screen, population patch clamp on CHO cells stably expressing hERG

Chain of human ether-à-go-go-related gene (hERG) potassium channel (Q12809 whole entry, looked up): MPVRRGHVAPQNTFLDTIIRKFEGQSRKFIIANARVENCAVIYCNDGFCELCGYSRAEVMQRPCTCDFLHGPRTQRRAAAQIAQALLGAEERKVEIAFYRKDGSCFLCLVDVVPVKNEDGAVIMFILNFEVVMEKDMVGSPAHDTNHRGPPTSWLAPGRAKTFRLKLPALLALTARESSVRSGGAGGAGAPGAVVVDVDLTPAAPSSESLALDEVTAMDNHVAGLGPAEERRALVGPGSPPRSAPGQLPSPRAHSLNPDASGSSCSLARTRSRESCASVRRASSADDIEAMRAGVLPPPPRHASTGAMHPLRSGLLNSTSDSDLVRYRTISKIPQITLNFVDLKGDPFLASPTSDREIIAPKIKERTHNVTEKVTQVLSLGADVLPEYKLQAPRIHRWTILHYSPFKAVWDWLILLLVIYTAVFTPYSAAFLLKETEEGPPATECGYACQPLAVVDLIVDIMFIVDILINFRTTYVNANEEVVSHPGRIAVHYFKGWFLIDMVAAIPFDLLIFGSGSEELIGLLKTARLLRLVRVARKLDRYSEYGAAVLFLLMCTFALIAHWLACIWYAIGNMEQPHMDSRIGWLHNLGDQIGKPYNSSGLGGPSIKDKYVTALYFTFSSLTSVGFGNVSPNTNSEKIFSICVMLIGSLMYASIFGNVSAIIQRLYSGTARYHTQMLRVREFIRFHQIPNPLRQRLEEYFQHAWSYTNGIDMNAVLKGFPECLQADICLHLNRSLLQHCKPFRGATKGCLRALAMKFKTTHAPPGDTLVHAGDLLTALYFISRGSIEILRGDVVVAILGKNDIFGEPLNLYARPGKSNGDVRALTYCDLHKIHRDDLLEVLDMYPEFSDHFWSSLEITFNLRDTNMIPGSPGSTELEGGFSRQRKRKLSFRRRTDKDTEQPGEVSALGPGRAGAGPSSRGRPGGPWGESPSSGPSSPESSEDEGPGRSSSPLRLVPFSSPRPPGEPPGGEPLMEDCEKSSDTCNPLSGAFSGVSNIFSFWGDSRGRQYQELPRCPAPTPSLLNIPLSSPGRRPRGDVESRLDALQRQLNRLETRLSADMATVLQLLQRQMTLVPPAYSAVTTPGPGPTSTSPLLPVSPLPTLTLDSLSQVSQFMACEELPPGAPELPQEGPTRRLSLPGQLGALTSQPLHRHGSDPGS

Row | SMILES | hERG current change (%, negative = inhibition) at 1uM
1 | CCn1c(COc2ccccc2C)nnc1SCC(=O)NC1CCCC1 | 18.5%
2 | Cc1csc(NC(=O)c2ccc(COc3ccccc3)o2)n1 | 3.65%
3 | O=C1CC(c2ccccc2)CC(O)=C1C=Nc1ccccc1Cl (centres unmarked) | 11.1%
4 | Cc1ccc(C)c(NC(=S)N2CCC(NC(=O)c3ccco3)CC2)c1 | 10.7%
5 | CC(=O)Nc1ccc(S(=O)(=O)Nc2ccc3[nH]c(=O)[nH]c3c2)cc1 | 22.1%
6 | CCC1=C(OC(=O)N(CC)CC)N2C(=O)OC(=NCC3CC3)[C@]2(C)[C@H]2C1=CC[C@H]1C(=O)NC(=O)[C@H]12 | 10.4%
7 | O=C(NCc1ccco1)C(=O)NCC1OCCN1S(=O)(=O)c1ccc(Br)cc1 (centres unmarked) | 0.401%
8 | CCOC(=O)C1=C(COC(=O)c2cc(S(=O)(=O)N(C)C)ccc2C)NC(=O)NC1C (centres unmarked) | 1.46%
9 | COc1ccc(CNC(=O)C2CCCN(S(=O)(=O)c3cccc4nsnc34)C2)cc1 (centres unmarked) | 6.4%
10 | COc1ccc(C(C(=O)NC2CCCC2)N(C(=O)c2snc(C(N)=O)c2N)c2cc(C)ccc2OC)cc1OC (centres unmarked) | 5.27%
11 | O=C1CC(N2CCC(c3nc4ccccc4[nH]3)CC2)C(=O)N1c1ccccc1F (centres unmarked) | 3.89%
12 | Cc1cc(C)c2c(n1)SCC(=O)N2CC(=O)Nc1ccc(Br)c(C)c1 | 3.6%
13 | Cc1nc(CC(=O)Nc2nc(-c3ccccc3)cs2)cs1 | 0.165%
14 | CCCCCC/C(C=O)=C\c1ccccc1 | 22.1%
15 | COc1ccc(C2CC(c3cccs3)=NN2S(=O)(=O)c2ccc(C)cc2)cc1 (centres unmarked) | 9.62%
16 | CCCCn1c2c(c(=N)c3ccccc31)CCC2.I | -16.6%
17 | Nc1[nH]c(=S)[nH]c(=O)c1-c1ccccc1 | 11.2%
18 | CC(C)(C)c1ccc(C(=O)NCCCNC(=O)c2ccco2)cc1 | 7.71%
19 | O=C1CCC(C(=O)N2CCC(O)CC2)CN1CCc1ccc(Cl)cc1 (centres unmarked) | 7.44%
20 | CN(C)c1nccc(NCc2ccccc2)c1C#N | 4.34%
21 | Cc1ccc(C)c(OCCC(=O)NNC(=O)c2cc(C)oc2C)c1 | 0.801%
22 | O=C(N/N=C(\c1ccccc1)c1cccnc1)c1cccc(F)c1 | 2.06%
23 | COc1ccc(CC(=O)Nc2cc(C)c3c(=O)oc4ccccc4c3n2)cc1 | 6.05%

Row | SMILES | hERG current change (%, negative = inhibition) at 1uM
24 | Cc1ccc(S(=O)(=O)N2CCC(C(=O)N[C@H](C(=O)N3CCN(C)CC3)C(C)C)CC2)cc1 | 17.1%
25 | CCN(CC)N=Nc1ccc(S(=O)(=O)N2CCSC2C(=O)[O-])cc1.[K+] (centres unmarked) | 19.9%
26 | COc1cc(NC(=O)N2CCOCC2)cc(OC)c1 | 7.66%
27 | Cc1ccc(NC(=O)Nc2c(Cl)cccc2Cl)cn1 | 7.42%
28 | COc1ccc(S(=O)(=O)NC(CC(=O)NCCc2ccc(OC)c(OC)c2)c2ccco2)cc1 (centres unmarked) | 2.5%
29 | C=CCn1c(SCC(=O)Nc2sccc2C(N)=O)nc2sc(CC)cc2c1=O | 3.1%
30 | Cc1nn(C)cc1/C=C/C(=O)c1cccs1 | 8.48%
31 | Cc1nc(-c2ccccc2)sc1C1(C)CC(c2cccc([N+](=O)[O-])c2)=NO1 (centres unmarked) | 14.9%
32 | COc1ccc(NC(=O)[C@H](NC(=O)[C@@H]2Cc3ccccc3CN2)c2ccccc2)cc1 | 5.49%
33 | CCOc1ccc(NC(=O)CCc2nnc3ccc(N4CCC5(CC4)OCCO5)nn23)cc1 | 15.8%
34 | Cc1nc(SCC(=O)NC2CCS(=O)(=O)C2)c2c(C)c(C)sc2n1 (centres unmarked) | 12.3%
35 | O=C(O)c1nn(CC(=O)N2CCN(c3ncc(C(F)(F)F)cc3Cl)CC2)c(=O)c2ccccc12 | 8.31%
36 | CCOC(=O)Cc1csc(SCC(=O)Nc2cc(C)ccc2OC)n1 | 22.5%
37 | Cc1[nH]c2ccccc2c1/C=N/Nc1nncn1N.Cl | 6.39%
38 | Cc1ccccc1C(=O)NCCNc1ccc([N+](=O)[O-])cc1 | 7.46%
39 | O=C(OCc1nnc(-c2ccccc2)o1)c1ccc2ccccc2n1 | 16.2%
40 | O=C(Nc1ccc(Cl)c(C(F)(F)F)c1)[C@@H]1CC=C[C@@H]2CCN(C3CC3)C(=O)[C@@H]21 | 9.85%
41 | COc1cc(S(=O)(=O)Nc2ccccc2)ccc1N=Cc1c(C)[nH]n(-c2ccc(C)cc2)c1=O | 4.83%
42 | COc1ccc(S(=O)(=O)N2CCOC2CNC(=O)C(=O)NCc2ccco2)cc1 (centres unmarked) | 6.84%
43 | Cc1cc(C)cc(NC(=S)Nc2cccc3ccccc23)c1 | -0.413%
44 | CCOC(=O)c1c(C)c(C(=O)Nc2ccc(N(C)C)cc2)c(C)n1CC | 1.38%
45 | CC1(C)CC2CC(C)(CN2C(=O)c2cc(-c3ccccc3O)on2)C1 (centres unmarked) | 9.29%
46 | NC1=NC(=O)CC(C(=O)NCc2ccccc2)S1 (centres unmarked) | 18.5%

Row | SMILES | hERG current change (%, negative = inhibition) at 1uM
47 | CCOC(=O)NCC(C)(C)CNC(=O)OCC | 10.6%
48 | C[C@@H]1C2C[C@@]34COC(=O)C3=CC=C[C@H]4[C@@]13C[C@H](c1ccoc1)O[C@@H]3O2 | -10.3%
49 | Cc1cc(C)n(-c2ccc(C(=O)NC3CCCCC3)cc2)n1 | 7.14%
50 | Cn1cc(C(=O)OCC2CCN(CCNS(C)(=O)=O)CC2)c2ccccc21 | -0.138%
51 | COc1cc(C2NC(=O)CS2)cc(OC)c1OC (centres unmarked) | 5.84%
52 | C=CCn1c(C(C)NC(=O)c2cccs2)n[nH]c1=S (centres unmarked) | 11.2%
53 | COC(=O)c1nn(-c2ccc(OC)cc2)c(=O)cc1Oc1ccccc1 | -4.17%
54 | Clc1ccc2nc(-c3ccccc3)cn2c1 | 12.4%
55 | CC1(C)Cc2c(C#N)c(NCCN3CCOCC3)nc(-c3ccco3)c2CO1 | 5.41%
56 | Cc1cc(=O)n2nc(N3CCCC(C(=O)N4CCN(C)CC4)C3)sc2n1 (centres unmarked) | -1.41%
57 | CCn1c(CNc2ccc(OC)cc2)nnc1SCC(=O)Nc1ccc(F)cc1 | -8.41%
58 | O=C(NCc1ccccn1)Nc1cccc(Cl)c1Cl | 14.3%
59 | COc1ccc(OCC(=O)NC2CCCc3ccccc32)cc1 (centres unmarked) | 11.3%
60 | COc1cc2c(cc1OC)C(c1ccc([N+](=O)[O-])cc1)N(C(C)=O)CC2 (centres unmarked) | 5.11%
61 | Cn1ccnc1SCC(=O)Nc1ccc(Oc2ccccc2)cc1 | 11.3%
62 | O=C(NCC(c1ccco1)N1CCN(c2ccccc2F)CC1)c1cccs1 (centres unmarked) | 7.63%
63 | CC(=O)c1ccc(O)c(CO)c1 | 3.8%
64 | O=C(CN1CCCCCC1)Nc1ccc(Br)cc1 | -15.2%
65 | O=S(=O)(c1ccc(-c2nnc(SCc3nnc(-c4ccccc4)o3)o2)cc1)N1CCCC1 | 4.95%
66 | Cc1cc(=O)c2ccccc2n1Cc1ccccc1 | 5.61%
67 | Cc1ccc(CSc2nc3nc(C)cc(C)n3n2)cc1 | 13.5%
68 | C/C(Cc1ccccc1)=N\NC(=O)CNC(=O)c1ccc(Cl)cc1Cl | -24.7%
69 | O=C(Nc1ccc(Oc2cccc(C(F)(F)F)c2)nc1)c1ccco1 | 11.7%

Row | SMILES | hERG current change (%, negative = inhibition) at 1uM
70 | O=C1CC2(CCN(C(=O)c3ccccc3Cl)CC2)Oc2ccccc21 | -27.6%
71 | Cc1cc[n+](Cc2ccccc2)cc1.[O-][Cl+3]([O-])([O-])[O-] | 12.8%
72 | CCOC(=O)N1CCN(C(=O)c2ccc(Cl)c(S(=O)(=O)N3CCCC3)c2)CC1 | 4.18%
73 | CCOC(=O)c1nn(-c2ccc(C)cc2)c(=O)cc1OCC(=O)Nc1cc(C)ccc1OC | 6.86%
74 | CCC(C(=O)N1CCCC1)n1nc(C)c2c(C)n(-c3ccccc3)nc2c1=O (centres unmarked) | 1.63%
75 | CC(NC(=O)c1ccc(N2CCCC2=O)cc1)c1ccccc1 (centres unmarked) | -0.663%
76 | Cc1cccn2c(=O)c3cc(C(=O)NCCc4ccccc4)c(=N)n(Cc4ccco4)c3nc12 | -35.5%
77 | COc1ccc(C(=O)CSc2ncnc3nc[nH]c23)cc1 | 7.53%
78 | COc1ccc(CNC(=O)C2CCC(=O)N(CC3CCCCC3)C2)cc1 (centres unmarked) | 11.9%
79 | CCC(C)NC(=O)C1(NC(=O)Nc2ccccc2)CCCCC1 (centres unmarked) | 15.9%
80 | CCN(CC)C(=O)COc1coc(CN2CCN(c3ccccc3F)CC2)cc1=O | 9.54%
81 | Cc1ccc(N(CC(=O)NC2CCCCCC2)S(=O)(=O)c2c(C)nn(C)c2C)cc1 | -18.3%
82 | O=C(NCCCN1CCOCC1)c1cc(Cl)ccc1OCc1ccccc1 | -4.87%
83 | CCN(CC)S(=O)(=O)c1ccc(C)c(NC(=S)NNC(=O)C2CC2)c1 | 9.43%
84 | COC(=O)c1c(NC(=O)CN2CCN(c3ccccc3)CC2)c2c(C)cccc2n1C | 1.02%
85 | CN(C)c1ccc(N=Nc2ccc(C(=O)O)cc2)cc1 | 6.87%
86 | Cc1noc(C)c1C(=O)OCC(=O)c1c[nH]c2ccccc12 | 8.85%
87 | CC1CCN(C(=O)CNC(=O)CNC(=O)Cc2ccccc2)CC1 | 12.2%
88 | COc1cc(NC(=O)NCC2CCN(Cc3ccc(C)cc3)CC2)cc(OC)c1OC | 11.7%
89 | Cn1cnc2c(N/N=C/c3cccs3)ncnc21 | 16%

From article PMC4336329 (PLoS ONE, 2015)
